# Results published in PubChem BioAssay AID1745845 (National Center for Advancing Translational Sciences (NCATS), 2022).
# The campaign covered roughly 360,000 compounds. About 2,600 (0.72%) were called active. The shares of active, inactive and inconclusive entries below differ from those in the screen. Calls come from the whole dose curve; as a rule, active = well fitted inhibition curve with a large enough effect; inconclusive = small, poorly fitted or top-dose-only effect; inactive = no such curve, though single readings can be large or run the other way. Potencies beside an inconclusive call are fits to weak or partial responses and may not hold up.
# Experiment: Primary qHTS for Inhibitors of ATXN expression; note: nearly all actives have a fitted effect of over 55% in size
# Conditions: HEK-293 ATXN2-luciferase reporter, luminescence, 24 h; activity change, negative = inhibition: at 57 µM (top of the series)
# Method in brief: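 qHTS (up to 57 uM final) was run with 24 h compound exposure of reporter cells at 37 °C. Each well was multiplexed: SteadyGlo luminescence measured ATXN2-luciferase expression after a fluorogenic Gly-Phe-AFC viability readout (25 uM final).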
# % is set by controls: 0 for no effect and ±100 for the full control effect; potency is the fitted concentration of half-maximal effect; tags give direction and shape of the fitted curve.
SMILES,Potency,"activity change, negative = inhibition"
NCC(=O)Nc1ccc(-n2nc(C(F)(F)F)cc2-c2ccc3c(ccc4ccccc43)c2)cc1,"inconclusive: 48.5 µM [inhibitor, single point]",–
CCOc1ccccc1NC(=O)n1ncc2cc(Cl)ccc21,–,inactive: 14.4%
Cc1ccc(NC(=O)/C(C#N)=C/c2cc(C)n(-c3ccc(Br)cc3)c2C)cc1C,"inconclusive: 39.8 µM [inhibitor, single point]",–
CN(C)CCNC(=O)c1cccc(-c2cnc3c(NC=O)cc(-c4cccc(C(F)(F)F)c4)cn23)c1,"inconclusive: 31.6 µM [inhibitor, partial curve, poor fit]",–
C[C@H]1CN([C@@H](C)CO)S(=O)(=O)c2ccc(Br)cc2O[C@H]1CN(C)Cc1ccccc1F,"inconclusive: 31.6 µM [inhibitor, single point]",–
CCOC(=O)c1ccc(Cl)c(NC(=O)c2ccc(-c3ccccc3)cc2)c1,"inconclusive: 31.6 µM [inhibitor, single point]",–
Nc1nonc1-c1nc2ccccc2n1Cc1c(Cl)cccc1Cl,–,inactive: 13.3%
COc1ccc(CCNC(=O)c2ccc3nc(Cc4ccccc4)oc3c2)cc1OC,"inconclusive: 20 µM [inhibitor, partial curve, poor fit]",–
COc1ccccc1-c1nc(=S)c(C(C)=O)c(C)[nH]1,–,inactive: -12.4%
Cc1cc(Nc2cccc(Br)c2)c2ccccc2n1,"inconclusive: 11.9 µM [inhibitor, partial curve]",–
CCCCCCn1c(=O)n2n(c1=O)C[C@]1(OC(=O)NCC3CCCCC3)CN(S(=O)(=O)c3ccc(C)cc3)C[C@]1(O)C2,–,inactive: -33.5%
O=C1/C(=C/c2ccc([N+](=O)[O-])cc2)C=C(c2ccccc2)N1c1ccc(O)cc1,active: 20 µM,–
COc1ccc(Cc2ccc(NC(N)=O)cc2)cc1-c1cccc(Cl)c1,–,inactive: 3.92%
O=C(/C=C/c1ccccc1O)c1ccco1,–,inactive: -3.53%
C[C@@H]1CN([C@H](C)CO)S(=O)(=O)c2ccc(C#Cc3ccccc3F)cc2O[C@@H]1CN(C)C(=O)Cc1ccccc1,"inconclusive: 28.2 µM [inhibitor, single point]",–
S=C(c1ccccc1)N1CCCc2ccccc21,–,inactive: -8.17%
Cc1ccc(C(=O)NCCN2C3=NC[C@@H](Cc4ccccc4)N3C[C@H]2Cc2ccc(O)cc2)cc1Br,active: 25.1 µM,–
O=C1N[C@@H](Cc2ccccc2)COC(=O)[C@H](Cc2ccc(F)cc2)CC/C=C/C[C@H]1CC(=O)N(CCO)Cc1ccccc1,–,inactive: 0%
CC(C)(C)C(=O)Nc1ccc(-c2cn3ccsc3n2)cc1,"inconclusive: 17.8 µM [inhibitor, single point]",–
COc1ccccc1[C@]1(C)ON(c2ccccc2C(F)(F)F)C1=O,"inconclusive: 25.1 µM [inhibitor, single point]",–
O=C1CCCN1CCCN=c1c([N+](=O)[O-])nn(-c2ccc(Cl)cc2)n1O,"inconclusive: 37.7 µM [inhibitor, single point]",–

SMILES,Potency,"activity change, negative = inhibition"
COC(=O)[C@@]12CCCN1[C@H](c1ccc(-c3ccc(Cl)c(Cl)c3)cc1)[C@H]1C(=O)N(C)C(=O)[C@H]12,"inconclusive: 28.2 µM [inhibitor, partial curve]",–
CC(C)(C)c1ccc(OCCCC(=O)Nc2cccc(S(=O)(=O)N3CCOCC3)c2)cc1,"inconclusive: 25.1 µM [inhibitor, partial curve, poor fit]",–
Cc1cccc(NC(=O)CSc2nnc(CSc3nc(C)cc(C)n3)n2Cc2ccco2)c1,"inconclusive: 31.6 µM [inhibitor, partial curve, poor fit]",–
C[C@H]1[C@@H](OC(=O)CCC(=O)O)O[C@@H]2O[C@@]3(C)CC[C@@H]4[C@H](C)CC[C@@H]1[C@@]24OO3,"inconclusive: 4.85 µM [inhibitor, full curve]",–
CC(C)(C)OC(=O)[C@H](Cc1ccccc1)NC(=O)c1[nH]cnc1C(=O)Nc1cccc(Cl)c1,"inconclusive: 31.6 µM [inhibitor, single point]",–
N#CNC(=NCCCCCCOc1ccc(Cl)cc1)Nc1ccncc1,"inconclusive: 17.2 µM [inhibitor, partial curve]",–
Nc1nc(=O)n([C@H]2C[C@H](O)[C@@H](CO)O2)cc1F,active: 0.306 µM,–
CCN(CC)CCSc1nc2c([nH]1)c(=S)n(C)c(=O)n2C,–,inactive: 7.67%
COc1ccc([C@@H]2Sc3ccccc3NC(=O)[C@@H]2O)cc1,"inconclusive: 25.1 µM [inhibitor, partial curve, poor fit]",–
Nc1ccc(Oc2ccccc2-c2ccccc2)cc1,"inconclusive: 5.01 µM [inhibitor, full curve, poor fit]",–
Cc1ccc2nc(NNC(=O)c3ccc(S(=O)(=O)N4CCc5ccccc5C4)cc3)sc2c1,"inconclusive: 5.01 µM [inhibitor, full curve]",–
COc1ccccc1NC1=C(N2CCCCC2)C(=O)c2ccccc2C1=O,"inconclusive: 12.6 µM [inhibitor, partial curve, poor fit]",–
COCc1cc(CN2CCN(C)CC2)c(O)c2ncccc12,"inconclusive: 35.5 µM [inhibitor, single point]",–
CC(=O)c1ccc(NC(=O)c2noc3c2CCC3)cc1,active: 3.98 µM,–
COc1ccc(-c2cn3cccnc3n2)cc1NC(=O)Nc1cc(C)ccc1C,"inconclusive: 39.8 µM [inhibitor, single point]",–
Cc1ccc2c(c1)N(C)/C(=C/c1cccc[n+]1C)S2,–,inconclusive: -62.4% [inhibitor]
COC(=O)c1cc(CSc2nc3ccc(C)cc3[nH]2)oc1C,–,inactive: -19.3%
O=C(NCc1ccncc1)c1cccc(S(=O)(=O)N2CCc3ccccc32)c1,"inconclusive: 7.94 µM [inhibitor, partial curve, poor fit]",–
O=C(/C=C/Sc1ccccc1)c1ccc(Cl)cc1,"inconclusive: 28.2 µM [inhibitor, single point]",–
COc1cc(NC(=O)N2CCc3nc(NCc4cccc(Oc5ccccc5)c4)ncc3C2)cc(OC)c1OC,"inconclusive: 39.8 µM [inhibitor, single point]",–
CCN(CC)CCNc1ccnc2cc(Cl)ccc12,"inconclusive: 31.6 µM [inhibitor, single point]",–

SMILES,Potency,"activity change, negative = inhibition"
COc1cc2c(cc1OC)C(c1ccc(-c3cc(Cl)ccc3Cl)o1)=NCC2,"inconclusive: 15.8 µM [inhibitor, partial curve]",–
COc1ccc(/C=N/OCC(=O)NC(c2ccccc2)c2ccccc2)cc1OC,–,inactive: -21.2%
CS(=O)(=O)c1ccc(Sc2nc3ccccc3s2)c([N+](=O)[O-])c1,"inconclusive: 35.5 µM [inhibitor, single point]",–
CCn1c2ccccc2c2cc(NC(=O)COC(=O)c3ccccc3Br)ccc21,"inconclusive: 15.8 µM [inhibitor, partial curve]",–
COC(=O)/C=C\C(=O)Nc1cccc([N+](=O)[O-])c1,"inconclusive: 31.6 µM [inhibitor, single point]",–
CN(C)Cc1nc2ccccc2c(=O)n1Cc1nc(-c2cccc([N+](=O)[O-])c2)cs1,"inconclusive: 33.6 µM [inhibitor, single point]",–
Cc1cnc(CNC(=O)CC2C(=O)NCCN2Cc2ccccc2C(F)(F)F)cn1 (configuration not stated),–,inactive: -2.32%
CCOc1ccc(N2CC(c3nc4ccccc4n3CCCCOc3ccc(OC)cc3)CC2=O)cc1 (configuration not stated),"inconclusive: 22.4 µM [inhibitor, single point]",–
O=C(NCc1cccnc1)c1ccc(-c2ccc(F)c(F)c2)c2ccoc12,"inconclusive: 2.24 µM [inhibitor, partial curve, poor fit]",–
CC(Sc1nc2ccccc2c(=O)n1C)C(=O)NC1CCCCC1C (configuration not stated),"inconclusive: 1.78 µM [inhibitor, partial curve, poor fit]",–
COc1ccc(NC(=O)COc2ccc(N(C)S(=O)(=O)c3ccc(Cl)cc3)cc2)cc1OC,"inconclusive: 17.8 µM [inhibitor, partial curve, poor fit]",–
CC(C)(C)C(=O)Nc1ccc(NC(=O)c2ccco2)nc1,active: 0.891 µM,–
O=C(Nc1ccc2c(c1)OCO2)C1Cc2c(-c3ccc(Cl)cc3)ccnc2O1 (configuration not stated),"inconclusive: 7.08 µM [inhibitor, full curve, poor fit]",–
COc1ccc(Cl)cc1C(=O)Nc1ccc2nc(Nc3cccc(Cl)c3)cc(C)c2c1,–,inactive: -13.6%
CCCc1ccc(S(=O)(=O)N2CCC(c3nnc(-c4cccc(C)c4)o3)CC2)cc1,active: 10 µM,–
CN(CC1CCCO1)S(=O)(=O)c1ccc(C(=O)Nc2nc(-c3ccccn3)cs2)cc1 (configuration not stated),"inconclusive: 16.8 µM [inhibitor, partial curve, poor fit]",–
Cc1sc(NC(=O)/C=C/c2ccc3c(c2)OCO3)nc1-c1ccccc1,"inconclusive: 20 µM [inhibitor, partial curve]",–
CC[C@]12c3[nH]c4cc(-c5ccco5)ccc4c3CCN1C(=O)[C@@H](CC(=O)NCC13CC4CC(CC(C4)C1)C3)C[C@@H]2C(=O)N1CCN(C(=O)C2CC2)CC1,"inconclusive: 31.6 µM [inhibitor, single point]",–
O=C(COC(=O)c1c2c(nc3ccccc13)/C(=C/c1cccc([N+](=O)[O-])c1)CCC2)NC1CCS(=O)(=O)C1 (configuration not stated),"inconclusive: 31.6 µM [inhibitor, partial curve, poor fit]",–
CN(CC(=O)Nc1cccc(S(=O)(=O)NC2=NCCCCC2)c1)Cc1ccc(C(C)(C)C)cc1,"inconclusive: 22.4 µM [inhibitor, single point]",–
